# Laboratory results as given in PubChem BioAssay (Tox21).
# Inconclusive means that the source gave no clear call. Such entries were picked first, then a sample of the others. For some of these results: Potencies of inconclusive entries are doubtful fits and often do not repeat. Active and inactive are the calls of the source. Calls come from the whole dose curve; as a rule, active = well fitted curve in the direction sought with a large enough effect in the repeat runs; inconclusive = weak or mixed curves; inactive = no such curve, though single readings can be large; an effect the other way counts as inactive or inconclusive.
# Tests used:
# [1] = A CellTox Green Cytotoxicity Assay to monitor cytotoxicity in HEK293 cells - 40 hour (AID 1224871); note: nearly all actives have a fitted effect of over 45% in size; note: potency is the fitted concentration of half-maximal effect
# In short: (§1)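 Read-out: fluorescence of a cell-impermeant cyanine dye staining DNA of dead cells, proportional to cytotoxicity. HEK293, 600 cells/well with reagent, compound (23 nL DMSO) added after 5 h; reads at 0, 8, 16, 24, 32, 40 h.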
# [2] = qHTS RealTime-Glo MT Cell Viability Assay in HEK293 cells - 40 hour (AID 1224874); conditions: RealTime-Glo luminescence; max response: active compounds read low; note: potency is the fitted concentration of half-maximal effect; nearly all actives have a fitted effect of over 50% in size
# In short: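 Luminescence readout at each listed time point; HEK293, 600 cells/well, RealTime-Glo MT reagent added with cells; compounds pinned (23 nL in DMSO) after 5 h at 37 C; continuous culture at 37 C.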
# [3] = A CellTox Green Cytotoxicity Assay to monitor cytotoxicity in HEK293 cells - 24 hour (AID 1224875); note: potency is the fitted concentration of half-maximal effect; nearly all actives have a fitted effect of over 45% in size
# In short: as §1
# [4] = A CellTox Green Cytotoxicity Assay to monitor cytotoxicity in HepG2 cells - 16 hour (AID 1224876); note: potency is the fitted concentration of half-maximal effect; nearly all actives have a fitted effect of over 45% in size
# In short: (§2)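 HepG2, 600 cells/well premixed w/ CellTox Green; 5 h settle, 37 C/5% CO2; pintool cpd add (DMSO); 37 C, 40 h; fluorescence read at 0, 8, 16, 24, 32, 40 h.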
# [5] = A CellTox Green Cytotoxicity Assay to monitor cytotoxicity in HepG2 cells - 24 hour (AID 1224878); note: potency is the fitted concentration of half-maximal effect; nearly all actives have a fitted effect of over 45% in size
# In short: as §2
# [6] = A CellTox Green Cytotoxicity Assay to monitor cytotoxicity in HepG2 cells - 40 hour (AID 1224879); note: potency is the fitted concentration of half-maximal effect; nearly all actives have a fitted effect of over 40% in size
# In short: as §2
# [7] = qHTS RealTime-Glo MT Cell Viability Assay in HEK293 cells - 16 hour (AID 1224872); note: nearly all actives have a fitted effect of over 50% in size; note: potency is the fitted concentration of half-maximal effect
# In short: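 Reads taken at 0, 8, 16, 24, 32 and 40 h from the same wells. HEK293 cells (600/well) carried RealTime-Glo reagents from seeding, with compound added after a 5 h settle at 37 C.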
# [8] = qHTS RealTime-Glo MT Cell Viability Assay in HepG2 cells - 32 hour (AID 1224877); note: nearly all actives have a fitted effect of over 55% in size
# In short: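 HepG2 suspension premixed with RealTime-Glo reagents is plated at 600 cells per well and left 5 h at 37 C/5% CO2. Compounds in DMSO then go in, and bioluminescence reflecting viable cell number is recorded over 40 h.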
# Tags give direction and shape of the fitted curve.
smiles,measurement,setting,value
CCCCCC/C=C/C(=O)OC,Potency,[1],"inconclusive: 38.9 µM [activator, partial curve]"
same,Potency,[2],"inconclusive: 34.7 µM [cytotoxic, partial curve, poor fit]"
same,Potency,[3],"inconclusive: 43.6 µM [activator, partial curve]"
same,Potency,[4],"inconclusive: 54.9 µM [activator, single point]"
same,Potency,[5],"inconclusive: 54.9 µM [activator, single point]"
same,Potency,[6],"inconclusive: 54.9 µM [activator, single point]"
CC(C)=CCC[C@H](C)CC=O,Potency,[1],"inconclusive: 61.6 µM [activator, single point]"
same,Potency,[7],inactive
same,Potency,[3],"inconclusive: 61.6 µM [activator, single point]"
CC/C=C/CCCCCCCCCCOC(C)=O,Potency,[1],inactive
same,Potency,[2],"inconclusive: 61.6 µM [rising, single point]"
Cc1occc1C(=O)Nc1ccc(C(=O)N2CCC(F)(F)/C(=C\C(=O)N3CCC(N4CCCCC4)CC3)c3ccccc32)cc1,Potency,[7],"inconclusive: 9.65 µM [cytotoxic, partial curve]"
C[C@H]1C[C@@H]2[C@H]([C@@H](O)C[C@@]3(C)[C@H]2CC[C@]3(O)C(=O)CO)[C@@]2(C)C=CC(=O)C=C12,Potency,[1],inactive
same,Potency,[8],inactive
COc1ccnc2c1CCCCC2S(=O)c1nc2ccccc2[nH]1 (stereo unspecified),Potency,[7],active: 9.52 µM
CC1=C(C)C(=O)C(C(CCCCCC(=O)O)c2ccccc2)=C(C)C1=O (stereo unspecified),Potency,[7],"inconclusive: 9.52 µM [cytotoxic, partial curve]"
